In all, about 370,000 compounds went through this assay and about 150 (0.041%) were called active. Inconclusive results, whose numbers are uncertain, are shown with a selection of clear calls. Calls come from the whole dose curve; as a rule, active = well fitted inhibition curve with a large enough effect; inconclusive = small, poorly fitted or top-dose-only effect; inactive = flat fitted curve, though single readings scatter. Potencies of inconclusive entries are left out as doubtful fits.
Target: Beta-lactamase (Escherichia coli (strain K12)) (UniProt P00811)
Assay: qHTS Inhibitors of AmpC Beta-Lactamase (assay with detergent); note: nearly all actives have a fitted effect of over 25% in size;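 for activity change, negative = inhibition: 0% = no-compound wells and -100% = no-enzyme wells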
Conditions: AmpC hydrolysis of nitrocefin, absorbance 480 nm, 0.01% Triton; activity change, negative = inhibition: at 114 µM (top of the series)
Outline: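 20 mM phosphate pH 7.0 + 0.01% (detergent screen) or 0.0001% Triton X-100; 5.3 nM AmpC reagent; cpd preinc 15 min RT; nitrocefin (800 uM stock) to start; A480 q20 s × 4 min; Activity was normalised to no-enzyme and no-compound control wells.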
Potency is the fitted concentration of half-maximal effect; tags give direction and shape of the fitted curve.

Structure (SMILES)	Potency	activity change, negative = inhibition
Cc1cc(=O)oc(C)c1C(=O)Nc1c(C)n(C)n(-c2ccccc2)c1=O	inconclusive [inhibitor, partial curve]	
Cc1ccc(S(=O)(=O)NCCC(=O)OCC(=O)N(Cc2ccccc2)C(C)(C)C)cc1C	inconclusive [inhibitor, full curve, poor fit]	
O=S(=O)(NCc1cccnc1)c1cc(Cl)ccc1Cl	inconclusive [inhibitor, partial curve, poor fit]	
Nc1c(C(=O)NCc2ccco2)c2nc3ccccc3nc2n1CCc1ccccc1	inconclusive [inhibitor, partial curve]	
O=C(CCn1c(=O)sc2ccccc21)NCc1ccco1	inconclusive [inhibitor, partial curve]	
COc1ccc2oc(C(=O)OCC(=O)N3CCN(S(=O)(=O)c4ccccc4)CC3)c(C)c2c1	inconclusive [inhibitor, full curve, poor fit]	
O=C(Nc1ccccc1Cl)[C@H](CSCc1ccccc1)N1Cc2ccccc2C1=O		inactive: 16%
Cc1cc2ccccc2c(=O)[nH]1		inactive: -10.6%
COC(=O)c1ccc(CNC(=O)COC(=O)CCC2CCCC2)cc1	inconclusive [inhibitor, full curve, poor fit]	
Cc1ccc(O)c(-c2cc3ccccc3[nH]2)c1	inconclusive [inhibitor, full curve, poor fit]	
O=C(O)c1ccc(NS(=O)(=O)c2ccc3c(c2)C2C=CCC2C(c2ccccc2F)N3)cc1 (stereo not drawn)	inconclusive [inhibitor, partial curve]	
C[C@H](C(=O)O)c1cccc(C(=O)c2ccccc2)c1	inconclusive [inhibitor, partial curve, poor fit]	
Cc1nn(-c2ccccc2)c(C)c1C(=O)NCCc1ccccc1	inconclusive [inhibitor, full curve, poor fit]	
CC1CN(c2ccc([N+](=O)[O-])nc2)CC(C)O1 (stereo not drawn)		inactive: -1.95%
O=C(c1cccc(S(=O)(=O)N2CCCC2)c1)N1CCN(c2ccccc2F)CC1	inconclusive [inhibitor, full curve, poor fit]	
CCCNS(=O)(=O)c1ccc(N2CCCC2=O)c([N+](=O)[O-])c1	inconclusive [inhibitor, partial curve, poor fit]	
COc1ccc(NC(=S)N2CCC(c3ccccc3)C2)cc1 (stereo not drawn)		inactive: 4.13%
COc1ccc(NC(=O)CCN2CC(C)OC(C)C2)c(OC)c1 (stereo not drawn)	inconclusive [inhibitor, partial curve, poor fit]	
COCCn1c(SCC(=O)Nc2ccccc2OC)nc2ccccc21	inconclusive [inhibitor, partial curve]	
O=C(CNC(=O)c1ccc(Br)o1)Nc1ccccc1	inconclusive [inhibitor, partial curve]	
O=C(CSc1cccc(C(F)(F)F)c1)NC(=O)NCc1ccco1	inconclusive [inhibitor, full curve, poor fit]	
Cc1ccc(NC(=O)c2cccc(S(=O)(=O)N(C)C3CCCCC3)c2)nc1	inconclusive [inhibitor, partial curve, poor fit]	
CCc1nonc1NC(=O)c1oc2c(C)c(C)ccc2c1C		inactive: -5.66%

Structure (SMILES)	Potency	activity change, negative = inhibition
Cc1ccc2c(c1)NC(=O)c1cccnc1N2	inconclusive [inhibitor, full curve, poor fit]	
COc1ccc([C@]23Cc4cc(OC)c(OC)cc4C(O2)c2c(c4ccccc4oc2=O)O3)cc1		inactive: -6.37% [at 22.9 µM]
COc1ccc(Cl)cc1Nc1ncnc2sc(C)c(S(=O)(=O)N3CCC(C)CC3)c12		inactive: -3.38%
CCOC(=O)c1cc2c(ccn2C)n1CC(=O)N(Cc1ccccc1)c1ccc(F)cc1	inconclusive [inhibitor, full curve, poor fit]	
COc1ccccc1-c1cc(C(=O)N/N=C/c2sccc2C)c2ccccc2n1		inactive: -0.115%
CCOc1ccc(NC(=O)CC2C(=O)N(c3ccc(OC)cc3)C(=O)N2C2CCCCC2)cc1 (stereo not drawn)		inactive: 4.37%
CN(C)NC(=O)C(NC(=O)c1ccccc1)C12CC3CC(CC(C3)C1)C2 (stereo not drawn)	inconclusive [inhibitor, full curve, poor fit]	
CCOc1ccc2nc(NC(=O)Cn3cnc4c3c(=O)n(C)c(=O)n4C)sc2c1	inconclusive [inhibitor, full curve, poor fit]	
O=C(CCS(=O)(=O)c1ccc(F)cc1)Nc1nc(-c2ccccn2)cs1		inactive: -5.77%
Cc1ccccc1OCCOCCN1CCCCCC1	inconclusive [inhibitor, full curve, poor fit]	
CCC(CC)NC(=O)Nc1cccc(C)c1C		inactive: -0.758%
COc1ccc(CNC(=O)C(Cc2ccccc2)NS(=O)(=O)c2ccc3c(c2)CCN3C(C)=O)cc1 (stereo not drawn)		inactive: 0.275%
CC(Oc1ccc(C#N)cc1)C(=O)Nc1ccc(-n2cnnn2)cc1 (stereo not drawn)	inconclusive [inhibitor, single point]	
COC(=O)C1=C(N)Oc2cc(C)oc(=O)c2C1c1cccnc1 (stereo not drawn)	inconclusive [inhibitor, full curve, poor fit]	
COc1ccc(NS(=O)(=O)c2cccc3cccnc23)cc1		inactive: -9.75%
O=C1[C@@H]2Cc3c([nH]c4ccccc34)C(c3ccccc3)N2C(=O)CN1CCO (stereo partly drawn)		inactive: 0%
Cc1cc2c(=O)[nH]c(Cc3ccccc3)nc2s1	inconclusive [inhibitor, full curve]	
CCOC(=O)c1c(C)c(C(=O)NCCN2CCOCC2)c(C)n1C	inconclusive [inhibitor, partial curve, poor fit]	
Cc1nc(CN(C)Cc2nc(Cc3ccccc3Cl)no2)cs1		inactive: -1.88%
O=S(=O)(c1ccc(Cl)cc1)c1ccccn1		inactive: -11%
c1ccc2oc(-c3ccc4nc[nH]c4c3)nc2c1	inconclusive [inhibitor, full curve, poor fit]	
COc1ccc(CN2CC(=O)N(c3ccc(C)cc3)C2=S)cc1OC		inactive: 5.06%
CCc1ccccc1NC(=O)COc1ccc(C(=S)N2CCCC2)cc1	inconclusive [inhibitor, single point]	

Structure (SMILES)	Potency	activity change, negative = inhibition
CC(C)C(=O)Nc1ccc2c(c1)nc(CCN1CCN(C)CC1)n2C	inconclusive [inhibitor, partial curve]	
O=C(O)c1ccc(F)c(S(=O)(=O)Nc2ccccc2Cl)c1	inconclusive [inhibitor, single point]	
CCn1nc(C)c(/C=C/C(=O)Nc2ccc(C)cc2C)c1C		inactive: -5.9%
COC(=O)C1C(=O)C(C(=O)c2ccccc2)C(=O)CC1(C)C (stereo not drawn)		inactive: -3.09%
Cc1ccc(S(=O)(=O)N2CCOCC2)c(C)c1NS(C)(=O)=O	inconclusive [inhibitor, full curve, poor fit]	
O=C1NC(=O)C(CC(=O)N(c2ccccc2)C2(C(=O)NC3CCCC3)CCCCC2)N1 (stereo not drawn)	inconclusive [inhibitor, partial curve]	
COc1ccc(Nc2cc(C)nc(N3CCOCC3)n2)cc1	inconclusive [inhibitor, partial curve]	
CCCCNC(=O)c1cc2n(n1)C(C(F)(F)F)CC(c1ccccc1)N2 (stereo not drawn)	inconclusive [inhibitor, full curve, poor fit]	
COc1cc(OC)cc(C(=O)N[C@H](C(=O)OCC(=O)Nc2cccc(F)c2)C(C)C)c1		inactive: 1.98%
COc1ccc(OCC(=O)Nc2cccc(C(=O)OCc3cc(=O)n4nc(C)sc4n3)c2)cc1	inconclusive [inhibitor, full curve, poor fit]	
NC(=O)C1CCN(C(=O)COCc2cc(-c3ccc4c(c3)OCO4)on2)CC1	inconclusive [inhibitor, full curve]	
O=[N+]([O-])C1=CC=C2C(=NC3(CCCCC3)N2O)C1=NCCO		inactive: -2.25%
CCCn1nc2ccccc2c1P(=O)(N1CCOCC1)N1CCOCC1	inconclusive [inhibitor, partial curve, poor fit]	
CCOC(=O)c1cc(-c2ccccc2)sc1NC(=O)CCN1C(=O)c2ccccc2C1=O	inconclusive [inhibitor, partial curve, poor fit]	
CC(=O)Oc1ccc(-c2cccc(C(=O)O)c2)cc1	inconclusive [inhibitor, partial curve, poor fit]	
O=C(Cc1ccccc1)Nc1ccnn1C1CCN(Cc2ccc(CO)o2)CC1	inconclusive [inhibitor, partial curve]	
COc1ccccc1NC(=O)CSc1n[nH]c(-c2ccccn2)n1	inconclusive [inhibitor, full curve, poor fit]	
COc1ccc(C(=O)Nn2c(CC(C)C)nc3cc(OC)c(OC)cc3c2=O)c(OC)c1	inconclusive [inhibitor, full curve, poor fit]	
Cc1nnc(SC(C)C#N)n1-c1ccccc1 (stereo not drawn)	inconclusive [inhibitor, partial curve, poor fit]	
Clc1ccc(-n2cccc2/C=N/n2cnnc2)cc1	inconclusive [inhibitor, full curve, poor fit]	
Cc1cc(Cl)ccc1NC(=S)NCC(O)c1ccccc1 (stereo not drawn)	inconclusive [inhibitor, full curve]	
O=C(Nc1ncccn1)c1ccc(C(F)(F)F)cc1	inconclusive [inhibitor, full curve, poor fit]	
